Results reported in PubChem BioAssay AID1240 (Sanford-Burnham Center for Chemical Genomics, 2008).
In all, about 50,000 compounds went through this assay and about 800 (1.6%) showed an effect of 50% or more. This is one part of the list.

The compounds below were run against Bcl-2-like protein 10 (Homo sapiens) (UniProt Q9HD36) (assay: TR3 peptide-Bcl-B binding displacers, biochemical primary FP assay, phenotype converters (AID 1240;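 further: 0% = Bcl-B with tracer peptide and DMSO and 100% = tracer peptide lacking Bcl-B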)). Settings: GST-Bcl-B / FITC-TR3 peptide fluorescence polarization; stronger effect = higher value; compound at 3.75 mg/L.
Sequence of UniProt Q9HD36 (Q9HD36 whole entry, looked up): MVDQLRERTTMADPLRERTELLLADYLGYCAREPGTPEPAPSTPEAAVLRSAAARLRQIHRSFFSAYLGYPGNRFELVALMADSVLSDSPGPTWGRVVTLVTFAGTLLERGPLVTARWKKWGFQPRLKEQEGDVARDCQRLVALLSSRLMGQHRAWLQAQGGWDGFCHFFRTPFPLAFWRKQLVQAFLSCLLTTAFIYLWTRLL

Row | Structure (SMILES) | displacement [%]
1 | O=C/C(=C\Nc1ccc(Br)cn1)c1nc2cc(Cl)ccc2o1 | 43.9
2 | Cc1ccc(NC(=O)CSc2nc3ccccc3s2)c([N+](=O)[O-])c1 | 8.5
3 | CC1(C)CC(C(CCNCc2ccccc2)c2ccccc2)CCO1 (stereo not given) | -7
4 | CCOc1ccc(C=NCC2(c3ccccc3)CCCC2)cc1OC | 9.1
5 | O=C1CC(N2CCN(C(c3ccccc3)c3ccccc3)CC2)C(=O)N1c1ccc(F)cc1 (stereo not given) | -0.9
6 | COc1cc(NC(=O)c2cnn3c2NC(c2ccc(Br)cc2)CC3C(F)(F)F)cc(OC)c1OC (stereo not given) | 11.9
7 | CCOC1C(OCC)N(S(C)(=O)=O)CCN1S(C)(=O)=O (stereo not given) | 4.3
8 | O=P(c1ccccc1)(c1ccccc1)C1COCCO1 (stereo not given) | 7.4
9 | O=C(NCCCNc1ccc([N+](=O)[O-])cc1Cl)c1ccc(F)cc1 | 14
10 | Cc1cc(OCC(=O)NCc2ccccn2)ccc1Br | -0.3
11 | Cc1cc(OCC(O)CN2CCN(Cc3ccccc3)CC2)ccc1C(C)C (stereo not given) | -1.9
12 | CN1CCN(/N=C/c2c(C(F)(F)F)[nH]n(-c3nc4ccccc4s3)c2=O)CC1 | -4.6
13 | O=C(CCCN1C(=O)/C(=C\c2cccs2)SC1=S)Nc1ccc(Br)cc1 | -0.3
14 | COC(=O)c1c(N)sc(C)c1-c1ccc(F)cc1 | 1.7
15 | N#C/C(=N\Nc1ccc(F)cc1)C(=N)N1CCCCC1 | 5.1
16 | CC(=O)Nc1cccc(C(=O)Nc2ccc(NC(C)=O)cc2Cl)c1 | 34.6
17 | Cc1cccc(N2CCN(S(=O)(=O)c3ccc([N+](=O)[O-])cc3)CC2)c1C | -6.3
18 | CCOC(=O)c1c(NC(=O)C2CC2)sc(C(=O)Nc2ccccc2F)c1C | -15.7
19 | CCOc1ccc2c(C)c(Cl)c(=O)oc2c1 | 6.4
20 | COc1ccc2c(c1)C1=C(CC2)C(c2ccc(N(C)C)cc2)NC(=S)N1 (stereo not given) | 2.6
21 | COc1ccc(-n2c(SCC(=O)Nc3ccccc3C)nc(O)c(Cc3ccccc3)c2=O)cc1 | 3.6
22 | N#CC(C(=O)O)=C1C2CC3CC(C2)CC1C3 | -6.4
23 | O=C1CC(c2ccccc2Cl)CC2=C1C(c1cccs1)Nc1ccccc1N2 (stereo not given) | 2.9
24 | CCOC(=O)C1=NNC2C(=O)N(CC)C(=O)C12 (stereo not given) | 2.2

Row | Structure (SMILES) | displacement [%]
25 | Cc1nc2c(-c3ccccc3)c(C)[nH]n2c(=O)c1Cc1ccccc1 | -6.7
26 | CCc1ccc(OCCSc2nc3ccccc3c(=O)[nH]2)cc1 | 2.4
27 | NC(=O)c1c(NC(=O)c2ccc([N+](=O)[O-])s2)sc2c1CCCC2 | 11.9
28 | CCCOc1ccc(/C=C2/C(=O)NC(=O)N2C(C)=O)cc1OC | 8.2
29 | COc1ccc(C)cc1NC(=O)COc1cc(C)c(Cl)c(C)c1 | -1.6
30 | CCOc1cc(/C=C2\SC(=S)N(c3ccc(F)cc3)C2=O)ccc1O | 11.8
31 | CCOC(=O)c1c(C)nc2c(c1C)/C(=N/O)CC(C)(C)C2 | 14.5
32 | COc1cccc(C2NC(=O)NC(C)=C2C(=O)Nc2ccc(C)cc2)c1OC (stereo not given) | 8.2
33 | Cc1cccc(NC(=O)c2ccc(C(=O)Nc3cccc(C)c3)nc2)c1 | -4.1
34 | O=C(COc1ccc(Br)cc1)NNC(=O)c1ccccc1 | -0.3
35 | CN(Cc1ccccc1)Cc1c[nH]c2ccccc12 | 5.8
36 | CC(=O)/C=C(\C)N1N=C(c2ccccc2)CC1c1cccc([N+](=O)[O-])c1 (stereo not given) | -5.8
37 | CCC(=O)c1ccc(N2CCCCC2)c(F)c1 | -16.6
38 | O=S1(=O)CCC(NC(=S)N/N=C/c2ccc(-c3cc(Cl)ccc3Cl)o2)C1 (stereo not given) | 9.8
39 | OC1(C(F)(F)F)CC(c2ccccc2)=NN1C(=S)c1ccccc1 (stereo not given) | -10.5
40 | O=C(CSc1nc2ccccc2[nH]1)N/N=C/c1c(F)cccc1Cl | -10.1
41 | CC1(C)CC(=O)C2=C(C1)Nc1ccccc1N(C(=O)C(F)(F)F)C2c1ccco1 (stereo not given) | 5.9
42 | O=C(/C=C/c1ccccc1)Nc1ccc(F)c(F)c1 | -7.7
43 | CCOc1ccc(S(=O)(=O)NCc2ccccc2Cl)c2ccccc12 | 3.4
44 | Cc1cccc(N2CCN(C(=O)c3ccc(Cl)c(Cl)c3)CC2)c1C | -4.2
45 | COC(=O)CC(C(=O)OC)P(=O)(O)CN(C)S(C)(=O)=O (stereo not given) | -10.4
46 | CC(C)CN1C(=O)c2ccc(C(=O)c3cccc([N+](=O)[O-])c3)cc2C1=O | -0.6
47 | CN1CCN(Cn2c(O)c(N=NC(=O)c3cccnc3)c3cc(Br)ccc32)CC1 | -7
48 | COc1ccc(O)c(/C=C2\SC(=S)N(C)C2=O)c1 | -41.4

Row | Structure (SMILES) | displacement [%]
49 | COc1cc(C(=O)NCc2cccc3ccccc23)cc(OC)c1OC | 9.9
50 | Cn1c(O)c(C=NCc2ccc(Cl)c(Cl)c2)c(=O)n(C)c1=O | -7.3
51 | Cc1c(C(=O)NC(C)c2ccccc2)cccc1[N+](=O)[O-] (stereo not given) | -12
52 | Cc1ccc(C2=NC(=O)/C(=C/c3cc4c(cc3Br)OCO4)S2)cc1 | 16.4
53 | O=C(Nc1cccnc1)c1ccccc1F | -2.4
54 | O=C1CC(Nc2ccc(F)cc2)C(=O)N1c1ccccc1Cl (stereo not given) | 10.8
55 | CCOc1ccc(C(=O)Nc2ccc(C(C)=O)cc2)cc1OCC | 22.5
56 | C/C(=C/C(=O)C(F)(F)C(F)F)NCCN/C(C)=C\C(=O)C(F)(F)C(F)F | -3.9
57 | CCOc1ccc(S(=O)(=O)N(CC(=O)NC(C)(C)C)c2ccc(C)cc2)cc1 | -6.4
58 | CCOc1ccc(-n2nc3ccc(NC(=O)c4ccc([N+](=O)[O-])cc4Cl)cc3n2)cc1 | -0.3
59 | O=C(/C=C/c1ccc(F)cc1)n1cnc2ccccc21 | -3.1
60 | O=C(CSc1ncn[nH]1)c1cccc([N+](=O)[O-])c1 | 6.7
61 | COc1ccc(N2C(=O)S/C(=C/c3ccc(OC)c(OC)c3)C2=O)cc1 | 15.9
62 | COc1ccc2oc(=O)c(C(=O)Nc3ccc(Cl)c(Cl)c3)cc2c1 | 16.2
63 | CC(C)(C)c1ccc(CNc2cc(N3CCOCC3)ccc2[N+](=O)[O-])cc1 | 10.8
64 | O=C(O)c1cccc(N2C(=O)c3ccc(OCCOc4ccc5c(c4)C(=O)N(c4cccc(C(=O)O)c4)C5=O)cc3C2=O)c1 | -0.6
65 | CCOC(=O)C(CCCCCOc1cccc(Cl)c1)C(=O)OCC | -6
66 | O=C(COc1cccc2ccccc12)NCc1ccccn1 | 9.3
67 | Cc1ccc(OCCOCCOc2ccc(Br)cc2/C=N\n2cnnc2)cc1 | -9.7
68 | O=C(O)CCCC(=O)NCc1ccc(C(=O)O)cc1 | -4.5
69 | COc1ccc(CCNC(=O)c2cc3nc(-c4cccs4)cc(C(F)(F)F)n3n2)cc1OC | 8.5
70 | COc1cc(/C=N/n2cnnc2)cc(Br)c1OCc1ccc(Cl)cc1Cl | -11.4
